Results on 12 compounds are retold here after ChEMBL document CHEMBL5303300, “EUbOPEN Chemogenomics Library - Multiplex” (2023).

The source holds more than one record for some entries. This is not the full list of results. An entry can have further records. Results that share an entry are repeated measurements in other runs, samples, wells, individuals or studies.

The subject of the data set is U2OS. In words: Multiplex assay against U2OS. Format: toxicity, cell-based. To be noted: human, number of replicates 2. In short, it runs like this: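 Imaging took place on a CQ1 microscope at 37°C and 5% CO2 once compound had been added to live cells stained at seeding with Hoechst33342, BioTracker Green Microtubule Cytoskeleton Dye, MitoTracker Red and Annexin V Alexa Fluor 680. CellPathfinder machine-learning gating classed cells as Hoechst high-intensity objects or normal cells, classed normal cells as having healthy, pyknosed or fragmented nuclei, and classed pyknosed cells as mitotic or apoptotic. Tubulin, mitochondrial-mass and membrane-permeability phenotypes are per cents of the healthy-nucleus cells.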

[1] abbreviates: 12 h, 1 µM, compound concentration 1 uM.
Setting [2] is: 12 h, 10 µM, compound concentration 10 uM.
The mark [3] stands for this setting: 24 h, 1 µM, compound concentration 1 uM.
The mark [4] stands for this setting: 24 h, 10 µM, compound concentration 10 uM.
The mark [5] stands for this setting: 48 h, 1 µM, compound concentration 1 uM.
The mark [6] stands for this setting: 48 h, 10 µM, compound concentration 10 uM.

Take `COc1ccncc1C(=O)NC(=O)Nc1ccc(-c2ccccc2)c(C(F)(F)F)c1`: the “Population Fragmented Nuclei (%)” value reads like this: under setting [1], 23% and 3%; under setting [3], 21% and 2%; under setting [5], 20% and 2%. The “Total Cell Count” value under setting [1] is 26 and 235; the “Total Cell Count” value under setting [2] was 49 and 228; the “Total Cell Count” value under setting [3] is 38 and 305; the “Total Cell Count” value under setting [4] was 59 and 316; the “Total Cell Count” value under setting [5] was 50 and 665; the “Total Cell Count” value under setting [6] was 127 and 639.
In the case of `CNc1ncc2cc(-c3ccc(-c4cccc(C)n4)cc3Cl)c(=O)n(C[C@H]3OC[C@H](N)CO3)c2n1`, the “Population Fragmented Nuclei (%)” value reads like this: under setting [1], 47% and 3%; under setting [3], 33% and 8%; under setting [5], 29% and 6%. The “Population Membrane Permeable-Phenotype (%)” value is, setting by setting: under setting [1], 21% and 1%; under setting [3], 16% and 2%; under setting [4], 14% and 2%; under setting [6], 55% and 4%. The “Total Cell Count” value is, setting by setting: under setting [1], 42 and 165; under setting [2], 74 and 290; under setting [3], 42 and 210; under setting [4], 72 and 331; under setting [5], 75 and 416; under setting [6], 72 and 427. Moreover, the “Population Mitochondria Different-Phenotype (%)” value reads like this: under setting [2], 35% and 10%; under setting [6], 44% and 9%. The “Population Healthy Nuclei (%)” value under setting [6] is 13% and 48%.
With `O=C1Nc2ccc(C(=O)c3ccco3)cc2C1=Cc1cc(Cl)c(O)c(Cl)c1` [GW406108X], the “Total Cell Count” value under setting [1] was 34 and 231; the “Total Cell Count” value under setting [2] was 33 and 188; the “Total Cell Count” value under setting [3] was 47 and 321; the “Total Cell Count” value under setting [4] is 45 and 264; the “Total Cell Count” value under setting [5] is 88 and 657; the “Total Cell Count” value under setting [6] is 53 and 449. The “Population Mitotic Cells (%)” value by setting is: under setting [2], 16% and 52%; under setting [4], 12% and 56%; under setting [6], 10% and 48%.
For the compound `CCN1C(=O)N(c2c(F)c(OC)cc(OC)c2F)Cc2cnc3[nH]c(CN4CCOCC4)cc3c21` [PEMIGATINIB], the “Total Cell Count” value is, setting by setting: under setting [1], 64 and 195; under setting [2], 31 and 169; under setting [4], 27 and 197; under setting [5], 136 and 504; under setting [6], 36 and 261. The “Population Fragmented Nuclei (%)” value under setting [2] was 25% and 5%. Also, the “Population Mitotic Cells (%)” value under setting [3] is 45% and 9%.
With `CC(C)NC(=O)[C@H]1CCC[C@H]1Nc1nc(Nc2ccc(C(=O)N(C)C3CCN(C)CC3)cc2)ncc1Cl`, the “Total Cell Count” value was 40 and 164 under setting [1]; 23 and 180 under setting [2]; 34 and 187 under setting [3]; 30 and 185 under setting [4]; 178 and 43 under setting [5]; 26 and 165 under setting [6]. For the same compound, the “Population Fragmented Nuclei (%)” value is 26% and 6% under setting [2]; 43% and 5% under setting [4]; 53% and 3% under setting [6]. In addition, the “Population Mitotic Cells (%)” value is 0% and 30% under setting [2]; 57% and 12% under setting [3]. In addition, under setting [6], the “Population Healthy Nuclei (%)” value is 7% and 45%. For the same compound, the “Population Mitochondria Different-Phenotype (%)” value under setting [6] is 0% and 29%.
As to `CN1CCc2cc(Nc3ncc(C(F)(F)F)c(NCc4cc[nH]n4)n3)ccc2C1`, under setting [1], the “Population Apoptotic (%)” value was 0% and 87%; the “Population Fragmented Nuclei (%)” value is 100% and 13%; the “Population Healthy Nuclei (%)” value is 0% and 60%; the “Population Pyknosed Nuclei (%)” value is 0% and 26%. Further, under setting [1], the “Population Tubulin-Different-Phenotype (%)” value was 0% and 90%; the “Total Cell Count” value was 4 and 153. Under setting [2], the “Population Apoptotic (%)” value is 0% and 72%; the “Population Fragmented Nuclei (%)” value was 50% and 15%; the “Population Mitotic Cells (%)” value was 100% and 28%; the “Total Cell Count” value is 24 and 183. Further, under setting [3], the “Population Apoptotic (%)” value was 0% and 91%; the “Population Fragmented Nuclei (%)” value is 100% and 16%; the “Population Healthy Nuclei (%)” value is 0% and 34%; the “Population Pyknosed Nuclei (%)” value was 0% and 48%. Under setting [3], the “Population Tubulin-Different-Phenotype (%)” value is 0% and 81%; the “Total Cell Count” value is 3 and 179. Under setting [4], the “Population Fragmented Nuclei (%)” value is 62% and 12%; the “Total Cell Count” value is 32 and 184. Besides, under setting [5], the “Population Apoptotic (%)” value is 0% and 99%; the “Population Fragmented Nuclei (%)” value was 100% and 15%; the “Population Membrane Permeable-Phenotype (%)” value is 0% and 33%; the “Population Pyknosed Nuclei (%)” value is 0% and 63%. Under setting [5], the “Population Tubulin-Different-Phenotype (%)” value was 0% and 91%; the “Total Cell Count” value is 2 and 168. For the same compound, under setting [6], the “Population Fragmented Nuclei (%)” value is 14% and 60%; the “Population Membrane Permeable-Phenotype (%)” value was 12% and 50%; the “Population Mitochondria Different-Phenotype (%)” value is 12% and 66%; the “Total Cell Count” value is 189 and 38.
Consider `CS(=O)(=O)c1ccc(C(=O)Nc2cc(F)c(F)c(COc3cc(F)c(Br)cc3CN3CC[C@H](O)C3)c2)c(Cl)c1.O=CO`, for which the “Total Cell Count” value runs as follows: under setting [1], 48 and 202; under setting [2], 137 and 38; under setting [3], 62 and 281; under setting [4], 37 and 149; under setting [5], 88 and 464; under setting [6], 145 and 31.
As for `CSc1cc2c(cc1C(F)(F)F)N(C(=O)Nc1cccnc1)CC2`, the “Population Fragmented Nuclei (%)” value is 20% and 1% under setting [1]; 4% and 38% under setting [2]; 17% and 3% under setting [3]; 22% and 4% under setting [4]. The “Total Cell Count” value under setting [1] was 34 and 252; the “Total Cell Count” value under setting [2] was 163 and 27; the “Total Cell Count” value under setting [3] was 39 and 341; the “Total Cell Count” value under setting [4] was 37 and 259; the “Total Cell Count” value under setting [5] is 61 and 677; the “Total Cell Count” value under setting [6] is 557 and 50. Also, the “Population Mitotic Cells (%)” value is, setting by setting: under setting [4], 0% and 55%; under setting [5], 16% and 53%.
With `CNS(=O)(=O)c1ccc(N(C)C)c(Nc2ncnc3cc(OC)c(OC)cc23)c1`, the “Population Fragmented Nuclei (%)” value under setting [1] was 15% and 3%; the “Population Fragmented Nuclei (%)” value under setting [2] was 35% and 2%; the “Population Fragmented Nuclei (%)” value under setting [3] was 23% and 2%; the “Population Fragmented Nuclei (%)” value under setting [4] is 20% and 2%; the “Population Fragmented Nuclei (%)” value under setting [5] is 20% and 3%; the “Population Fragmented Nuclei (%)” value under setting [6] was 35% and 7%. For the same compound, the “Population Mitotic Cells (%)” value under setting [1] is 0% and 38%. Moreover, the “Total Cell Count” value is, setting by setting: under setting [1], 26 and 216; under setting [3], 30 and 308; under setting [4], 59 and 224; under setting [5], 59 and 706; under setting [6], 102 and 327.
Consider `Cl.Clc1ccc2nsnc2c1NC1=NCCN1` [TIZANIDINE HYDROCHLORIDE], for which the “Total Cell Count” value is, setting by setting: under setting [1], 41 and 298; under setting [2], 39 and 265; under setting [3], 62 and 409; under setting [4], 55 and 356; under setting [6], 86 and 811. Further, the “Population Apoptotic (%)” value is 100% and 27% under setting [2]; 0% and 47% under setting [4]. Also, the “Population Mitotic Cells (%)” value runs as follows: under setting [2], 0% and 72%; under setting [3], 0% and 41%; under setting [4], 0% and 52%; under setting [6], 11% and 61%.
Turning to `CC(C)S(=O)(=O)c1ccccc1Nc1nc(N[C@@H]2CCCN(CCCCCCCNC(=O)COc3cccc4c3C(=O)N(C3CCC(=O)NC3=O)C4=O)C2)ncc1Cl` (some centres not stated), the “Total Cell Count” value runs as follows: under setting [1], 41 and 224; under setting [2], 42 and 274; under setting [3], 45 and 240; under setting [4], 52 and 259; under setting [5], 49 and 234; under setting [6], 243 and 46. Moreover, the “Population Mitochondria Different-Phenotype (%)” value is, setting by setting: under setting [4], 20% and 72%; under setting [5], 18% and 4%; under setting [6], 51% and 0%. Under setting [5], the “Population Fragmented Nuclei (%)” value is 22% and 7%. The “Population Membrane Permeable-Phenotype (%)” value was 36% and 4% under setting [5]; 51% and 0% under setting [6]. For the same compound, the “Population Tubulin-Different-Phenotype (%)” value under setting [6] is 88% and 0%.
Consider `COc1ccc(CC[C@@H](OC(=O)[C@@H]2CCCCN2C(=O)[C@H](c2cc(OC)c(OC)c(OC)c2)C2CCCCC2)c2cccc(OCCN3CCOCC3)c2)cc1OC`, for which the “Total Cell Count” value is 37 and 210 under setting [1]; 42 and 214 under setting [2]; 43 and 263 under setting [3]; 44 and 220 under setting [4]; 60 and 382 under setting [5]; 50 and 234 under setting [6]. Moreover, the “Population Fragmented Nuclei (%)” value under setting [2] was 29% and 4%. Moreover, the “Population Mitotic Cells (%)” value reads like this: under setting [2], 0% and 29%; under setting [4], 26% and 3%; under setting [5], 42% and 12%. Also, the “Population Mitochondria Different-Phenotype (%)” value under setting [3] was 10% and 39%.
